Laboratory results taken from patent US20150064697A1 (priority 2012, published 2015).

System: caspases 3 and 7 in p53-WT and p53-null MEFs
Test: Caspase-3,7 activity assay (Ac-DEVD-AMC)
Details: 1 μM doxorubicin 16 hours

COc1cccc2c1C(=O)c1c(O)c3c(c(O)c1C2=O)C[C@@](O)(C(=O)CO)C[C@@H]3O[C@H]1C[C@H](N)[C@H](O)[C@H](C)O1 [doxorubicin]
caspase 3 and 7 levels, p53-WT vs p53-null MEFs: higher levels of caspases 3 and 7 in p53-WT than in p53-null MEFs
